Reference: PubChem BioAssay AID493208 (National Center for Advancing Translational Sciences (NCATS), 2011)
Screen size: about 44,000 compounds; about 340 (0.77%) were called active. Another 5% or so got no clear call; they are omitted. The call rests on the fitted dose curve; in most records, active means well fitted inhibition curve with a large enough effect; inconclusive means small, poorly fitted or top-dose-only effect; inactive means flat fitted curve, though single readings scatter. Some of the results follow.

Experiment: Acumen qHTS Assay for Inhibitors of the mTORC1 Signaling Pathway in MEF (Tsc2-/-, p53-/-) Cells: Sytravon;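 further: plate controls were DMSO for no effect and rapamycin for full effect; nearly all actives have a fitted effect of over 50% in size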
Settings: phospho-rpS6 immunofluorescence/PI, 24 h; series mostly up to 38.3 µM; activity change, negative = inhibition: at the top concentration
Method in brief: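 Compounds act on Tsc2-/-, p53-/- fibroblasts carrying an empty vector for 24 h before fixation and dual staining for phospho-S6 and DNA (propidium iodide). Values are percentages of cells above a rapamycin-defined pS6/PI threshold.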

Activity change, negative = inhibition, inactive:
COc1ccc(NC(=O)C2=C(C)Nc3c(C(=O)Nc4ccc(C)cc4)cnn3C2c2cccc(Cl)c2)cc1 (stereo unspecified) -6.99%
CCCCN(CC)C(=O)c1c[nH]c2ccc(S(=O)(=O)Nc3cccc(OC)c3)cc2c1=O -17.2%
COc1ccc(NC(=O)CC2Nc3cccc4cccc(c34)NC2=O)cc1 (stereo unspecified) -11%
Cc1ccc2oc(-c3cccc(NC(=O)c4cccc5c(Br)cccc45)c3)nc2c1 6.39%
O=C(CCCn1c(=O)c2cccn2c2ccccc21)Nc1cccc(Cl)c1 1.31%
Clc1ccccc1CSc1nncn2c1cc1occc12 -4.1%
CC(=O)N1c2ccccc2CC1C(=O)N1CCN(c2cccc(C)c2C)CC1 (stereo unspecified) 3.72%
Cc1ccc2onc(CC(=O)N3CCN(c4ccccc4F)CC3)c2c1 -0.56%
Cc1oc2ccc(O)c(CN3CCOCC3)c2c1C(=O)Nc1ccc(C(C)C)cc1 -25.9%
COc1ccc(-c2cc(C)no2)cc1S(=O)(=O)N1CCN(c2ccc(C(C)=O)cc2)CC1 4.57%
COc1ccc(C(=O)NCC(c2cccnc2)N2CCN(c3ccccc3F)CC2)cc1OC (stereo unspecified) -21.8%
CCCc1nn2c(=O)cc(COC(=O)c3ccccc3NC(=O)C3CCCCC3)nc2s1 5.12%
CCC(=O)N1CCc2cc(S(=O)(=O)CCC(=O)NCc3ccccc3Cl)ccc21 -9.06%
COC(=O)c1c(C)sc(-c2c(-c3ccc(F)cc3)[nH]c3[nH]c(=O)[nH]c(=O)c23)c1O -3.91%
Cc1ccc(NC(=O)C2CCN(S(=O)(=O)c3cccs3)CC2)cc1 2.47%
COc1ccc(CCNC(=O)CCc2c(C)nc3c(-c4ccc(F)cc4)c(C)nn3c2C)cc1OC 2.36%
CC1=C(C(=O)OC2CCCCCC2)C(c2ccccc2Cl)CC(=O)N1 (stereo unspecified) -9.87%
CCc1ccc(NC(=O)CN(c2ccc(C)cc2)S(=O)(=O)c2c(C)nn(C)c2C)cc1 -9%
COCCCNC(=O)N1CCN(c2nnc(C)c3c(C)n(-c4ccc(Cl)cc4)nc23)CC1 11.1%
Cc1ccc(-n2c(SCc3nc(-c4ccc(Cl)cc4)no3)nnc2-c2ccncc2)cc1 -19.9%
CCOc1cccc(CC(=O)N2CCc3c([nH]c4ccccc34)C2c2ccc(OC)cc2)c1OCC (stereo unspecified) 9.34%
COc1cccc(CNCCCSc2nnnn2C)c1 -5.92%
COc1ccc(-c2c(C)nn3c(C(F)(F)F)cc(C)nc23)cc1OC -15%
Cc1oc2ncn(C)c(=O)c2c1C(=O)N1CCN(c2ccc(Cl)cc2)CC1 4.94%
Cc1ccccc1CN1C(=O)c2ccccc2S(=O)c2ccc(C(=O)NCc3ccccc3)cc21 (stereo unspecified) 12%
O=C1c2oc3ccccc3c(=O)c2C(c2cccc(O)c2)N1Cc1ccc(F)cc1 (stereo unspecified) 2.91%
